Some of the results follow.
Tests used:
[1] = test system: HSkMC (human skeletal muscle cells); experiment: cytotoxicity call (relative viability < 0.9); details: 10 µM
[2] = test system: HepG2; experiment: cytotoxicity call (relative viability < 0.9); details: 10 µM
[3] = test system: S. aureus RN4220; experiment: growth inhibition call (relative growth <= 0.2); details: 50 µM

C[C@@H]1CN([C@@H](C)CO)C(=O)c2cccc(NC(=O)c3cnccn3)c2O[C@@H]1CN(C)Cc1ccc(C(=O)O)cc1
inactive: cytotoxicity call [1] | cytotoxicity call [2] | growth inhibition call [3]

COc1cccc(C#Cc2cnc3c(c2)C(=O)N([C@H](C)CO)C[C@H](C)[C@@H](CN(C)C(=O)C2CCOCC2)O3)c1
inactive: cytotoxicity call [1] | cytotoxicity call [2] | growth inhibition call [3]

NCc1ccno1
inactive: cytotoxicity call [1] | cytotoxicity call [2] | growth inhibition call [3]

COCC#Cc1cnc2c(c1)C(=O)N([C@@H](C)CO)C[C@H](C)[C@H](CN(C)C(=O)CN1CCOCC1)O2
inactive: cytotoxicity call [1] | cytotoxicity call [2] | growth inhibition call [3]

C[C@H](CO)N1C[C@H](C)[C@H](CN(C)Cc2ccc(Oc3ccccc3)cc2)Oc2c(NC(=O)c3ccncc3)cccc2C1=O
inactive: cytotoxicity call [1] | cytotoxicity call [2] | growth inhibition call [3]

COc1ccc2c3c([nH]c2c1)[C@@H](CO)N(CC1CCOCC1)C[C@]13CCN(CC1)C(=O)C1CCOCC1
inactive: cytotoxicity call [1] | cytotoxicity call [2] | growth inhibition call [3]

COc1cc(C(C)=O)cc(OC)c1O
inactive: cytotoxicity call [1] | cytotoxicity call [2] | growth inhibition call [3]

C[C@H](CO)N1C[C@H](C)[C@H](CN(C)S(=O)(=O)c2cccs2)Oc2ccc(NC(=O)CCN3CCOCC3)cc2C1=O
inactive: cytotoxicity call [1] | cytotoxicity call [2] | growth inhibition call [3]

Cc1noc(C)c1S(=O)(=O)N(C)C[C@@H]1Oc2ccc(NC(=O)Cc3cn(C)c4ccccc34)cc2CC(=O)N([C@H](C)CO)C[C@H]1C
inactive: cytotoxicity call [1] | cytotoxicity call [2] | growth inhibition call [3]

Cn1cnc(S(=O)(=O)N[C@@H]2C=C[C@H](CC(=O)N3CCN(c4ccccc4)CC3)O[C@H]2CO)c1
inactive: cytotoxicity call [1] | cytotoxicity call [2] | growth inhibition call [3]

From the antibiotic and cytotoxicity screens of Wong et al. (2023)
